Laboratory results from PubChem BioAssay AID485281 (National Center for Advancing Translational Sciences (NCATS), 2010).
The campaign covered roughly 350,000 compounds. About 260 (0.074%) were called active. Inconclusive results, whose numbers are uncertain, are shown with a selection of clear calls. The call rests on the fitted dose curve; in most records, active means well fitted inhibition curve with a large enough effect; inconclusive means small, poorly fitted or top-dose-only effect; inactive means no such curve, though single readings can be large or run the other way. Potencies beside an inconclusive call are fits to weak or partial responses and may not hold up.

Each compound was assayed against Ferritin light chain (Equus caballus) (UniProt P02791) (assay: qHTS Assay for Identification of Novel General Anesthetics). Conditions: apoferritin/1-aminoanthracene competitive binding, fluorescence; series mostly up to 77.5 µM.
UniProt P02791, sequence (P02791 whole entry, looked up): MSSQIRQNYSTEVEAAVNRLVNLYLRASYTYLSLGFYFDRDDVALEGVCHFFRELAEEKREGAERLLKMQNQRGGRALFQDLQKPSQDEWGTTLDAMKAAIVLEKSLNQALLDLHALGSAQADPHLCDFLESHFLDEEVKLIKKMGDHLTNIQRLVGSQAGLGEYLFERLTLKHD
Outline: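 In PBS, apoferritin at 10 uM is loaded with 1-AMA from a 50% saturated solution. After 10 min of compound exposure at ambient temperature, reduced 535 nm fluorescence indicates probe displacement.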
Further: nearly all actives have a fitted effect of over 20% in size.
Potency means the concentration at half of the fitted maximal effect; tags describe the fitted curve by direction and shape.

Potency, inconclusive:
O=C(COC(=O)c1n[nH]c2ccccc12)c1cc(F)ccc1F 20 µM [inhibitor, partial curve]
COc1ccc(CCN(Cc2cc3cc(C)ccc3[nH]c2=O)C(=O)N2CCCC2)cc1OC 50.1 µM [inhibitor, partial curve, poor fit]
O=[N+]([O-])CC(=Nc1ccc(Cl)cc1)N/N=C\c1oc(O)c2ccccc12 56.2 µM [inhibitor, single point]
CC(C)SCc1nc2ccccc2[nH]1 35.5 µM [inhibitor, single point]
Cn1c2c(c(=O)n(C)c1=O)C(C(F)(F)F)(C(F)(F)F)N=C(CCC1CCCCC1)N2 35.5 µM [inhibitor, partial curve]
NC(=O)COC(=O)CCCc1c[nH]c2ccccc12 39.8 µM [inhibitor, single point]
CC(Nc1nc(N2CCCCC2)nc2ccccc12)c1ccccc1 (centres undefined) 22.4 µM [inhibitor, partial curve]
CCn1c(CN2CCCCC2)nc2cc(NC(=O)c3cccc([N+](=O)[O-])c3)ccc21 35.5 µM [inhibitor, single point]
Cc1ccc2nc(C)c3c(c2c1)OC(C(C)(Cl)Br)C3 (centres undefined) 25.1 µM [inhibitor, partial curve]
CC(C)C(C(=O)Nc1sc2c(c1C#N)CCCCC2)N1C(=O)c2ccccc2C1=O (centres undefined) 31.6 µM [inhibitor, partial curve]
Cc1ccc(C(=O)C(C)OC(=O)c2n[nH]c(=O)c3ccccc23)cc1 (centres undefined) 25.1 µM [inhibitor, partial curve]
CCC(Sc1nc2ncccc2[nH]1)C(=O)NC1CCC(C)CC1 (centres undefined) 20 µM [inhibitor, partial curve]
O=C(NCCc1ccco1)c1nn(Cc2ccccc2)c(=O)c2ccccc12 28.2 µM [inhibitor, partial curve]
COc1ccc(S(=O)(=O)NCCSc2ccccc2)cc1OC 22.4 µM [inhibitor, partial curve]
C/C(CCC(C)C)=N\Nc1ccc(S(N)(=O)=O)cc1[N+](=O)[O-] 35.5 µM [inhibitor, partial curve]
CCCn1c2c(c(O)c(C(=O)Nc3ncccc3C)c1=O)CCCC2 35.5 µM [inhibitor, single point]
O=C(Cc1cccc(C(F)(F)F)c1)OCN1C(=O)c2ccccc2C1=O 35.5 µM [inhibitor, partial curve]
C[C@H](NC(=O)OC(C)(C)C)c1nnc(SCC(=O)c2ccc(Cl)cc2)o1 35.5 µM [inhibitor, partial curve]
CC(=O)Nc1ccccc1-c1nc2ccccc2nc1OCC(=O)c1ccc2ccccc2c1 20 µM [inhibitor, partial curve]
CCn1c(Sc2ccc(N)cc2Cl)nc2ccccc21 31.6 µM [inhibitor, single point]
COCCCNC(=S)N1CCCN(c2nc3c(C)c(C)ccc3cc2C#N)CC1 11.2 µM [inhibitor, partial curve]
CCCSc1nc2sc3c(c2c(=O)n1-c1ccc(C)c(Cl)c1)CCN(C(C)=O)C3 8.91 µM [inhibitor, full curve]
COc1ccc(CN2C(=O)C3C4C=CC(C4)C3C2=O)cc1 (centres undefined) 28.2 µM [inhibitor, partial curve]
CCc1ccc(NC(=O)CCCN2C(=O)C3CC=CCC3C2=O)cc1 (centres undefined) 31.6 µM [inhibitor, partial curve, poor fit]
Cc1ccc(Sc2c([N+](=O)[O-])c(C)nn2C)cc1 35.5 µM [inhibitor, single point]
COC(=O)c1sccc1NC(=S)N1CCC(C)CC1 14.1 µM [inhibitor, partial curve]
Cc1ccc(S(=O)(=O)Nc2ccc3[nH]ccc3c2)cc1 31.6 µM [inhibitor, partial curve]
CCC1(CC)Cc2ccccc2-c2nc(CN3CCOCC3)[nH]c(=O)c21 39.8 µM [inhibitor, partial curve]
Cc1cccc(CCN=c2c([N+](=O)[O-])nn(-c3ccccc3)n2O)c1 15.8 µM [inhibitor, partial curve]
CCC(C)n1c(=S)[nH]c2ccccc2c1=O (centres undefined) 14.1 µM [inhibitor, partial curve]
Cc1ccc(NC(=S)NC(=O)C2CCC2)cc1C 31.6 µM [inhibitor, partial curve]

Potency, inactive:
O=C(NCCCN1CCCC1=O)C1CCN(S(=O)(=O)N2CCOCC2)CC1
CC(=O)NC(Cc1ccc(F)cc1)C(=O)NC1CCN(C(=O)Nc2ccc(F)cc2)CC1 (centres undefined)
Cc1ccc(CCNC(=O)CSCc2nc(-c3ccc(C)cc3)oc2C)cc1
COC(=O)c1ccccc1NC(=O)c1ccc(=O)n(Cc2cccc(C)c2)c1
COc1cc(NS(=O)(=O)c2ccc(NC(=S)NC(=O)c3cccs3)cc2)nc(OC)n1
CCOc1ccc(-c2nnc(SCC(=O)Nc3cc(C)ccc3OC)o2)cc1
CNc1nc2c(c(=O)n(C)c(=O)n2C)n1CC(O)COc1ccc(OC)cc1 (centres undefined)
O=C(O)c1ccc2c(c1)C(=O)N(CCC1=CCCCC1)C2=O
COc1cc(OC)c2c(-c3ccccc3)cc(=O)oc2c1C(CC(=O)N1CCCC1)c1ccc2c(c1)OCO2 (centres undefined)
COc1ccc(SCC(Cc2ccccc2)N2CCN(CCc3ccccc3)CCC2=O)cc1 (centres undefined)
O=c1nc2ccccc2c2n1CC(CN1CCN(C(c3ccccc3)c3ccccc3)CC1)N2 (centres undefined)
COc1cc(CN2CCNC(=O)C2CC(=O)N(C)CCCN2CCOCC2)cc(OC)c1 (centres undefined)
O=C(Nc1ccc(-c2noc(CCc3ccccc3)n2)cc1)c1ccco1
